# The supplement of paper PMC9446081
# The whole screen tested about 39,000 compounds, of which about 220 (0.56%) showed activity. The list shows a part of the results.
# System: Escherichia coli K-12 BW25113
# Assay: relative growth (OD600 normalised to plate interquartile mean) (fraction); higher = less growth inhibition, active = 0.2 or less
# Settings: 50 µM; LB; incubation time: overnight (16-24 h)
# 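Note: static incubation at 37 °C against the wild-type strain, values averaged over two biological replicates.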
row,SMILES,relative growth
1,C[C@@H]1CCCCO[C@@H](CN(C)S(=O)(=O)c2ccc(Cl)cc2)[C@@H](C)CN([C@H](C)CO)C(=O)c2cc(NC(=O)c3ccccc3)ccc2O1,inactive: 1.01
2,Cc1noc(C)c1NC(=O)Nc1ccc2c(c1)CC(=O)N([C@@H](C)CO)C[C@H](C)[C@H](CN(C)Cc1ccc(Cl)c(Cl)c1)O2,inactive: 0.867
3,Cc1noc(C)c1NC(=O)Nc1cccc2c1O[C@H](CN(C)C(=O)NC(C)C)[C@H](C)CN([C@H](C)CO)C2=O,inactive: 1.03
4,O=C(C[C@@H]1C=C[C@@H](NS(=O)(=O)c2ccc(F)cc2)[C@H](CO)O1)NCCN1CCCCC1,inactive: 0.993
5,CNC[C@@H]1OCCCC[C@H](C)Oc2ccc(NS(=O)(=O)c3c(C)noc3C)cc2C(=O)N([C@@H](C)CO)C[C@@H]1C,inactive: 0.981
6,COCC(=O)Nc1ccc2c(c1)OC[C@H](C)N(Cc1ccccc1OC)C[C@@H](C)[C@@H](OC)CN(C)C2=O,inactive: 1.01
7,COc1ccccc1CN1C(=O)c2ccccc2[C@](Cc2ccccc2I)(C(=O)NCC(C)C)[C@@H]1c1ccc(CO)cc1,inactive: 0.987
8,C[C@@H]1CN([C@H](C)CO)C(=O)c2cc(NC(=O)Cc3ccccc3)ccc2O[C@@H]1CN(C)S(=O)(=O)c1cccs1,inactive: 0.987
9,Cc1cccc(S(=O)(=O)N2C[C@H](O)COC[C@@H]3O[C@@H](CC(=O)NCCCN4CCOCC4)CC[C@H]32)c1,inactive: 1
10,COc1ccc(CN(C)C[C@@H]2OCCCC[C@H](C)Oc3ccc(NS(=O)(=O)c4ccc(Cl)cc4)cc3C(=O)N([C@@H](C)CO)C[C@@H]2C)cc1,inactive: 0.942
11,O=C1CN(S(=O)(=O)Cc2ccccc2)C[C@H]2[C@@H](c3ccc(C#Cc4ccc(F)cc4)cc3)[C@@H](CO)N12,inactive: 1.04
12,O=C(O)C[C@@H]1C=C[C@@H](NC(=O)c2ccncc2)[C@H](CO)O1,inactive: 0.995
13,CC(=O)N1C[C@@H](NC(=O)c2nccn2C)[C@@H]2OCCC[C@@H]21,inactive: 0.973
14,CC(C)(C)[S@@](=O)N1Cc2cc(C(=O)NC3CCC3)nc(-c3cccc(-c4ccccc4F)c3)c2[C@H]1CCO,inactive: 1.04
15,CC[N+](CC)(CC)CCOc1ccc(C=Cc2ccccc2)cc1,inactive: 0.983
16,C[C@H](CO)N1C[C@H](C)[C@@H](CN(C)S(=O)(=O)c2ccc(F)cc2)Oc2c(NS(=O)(=O)c3ccccc3)cccc2C1=O,inactive: 0.992
17,CC(C)NC(=O)N(C)C[C@H]1Oc2ccc(NC(=O)Nc3ccc4c(c3)OCO4)cc2C(=O)N([C@@H](C)CO)C[C@H]1C,inactive: 0.977
18,C[C@H](CO)N1C[C@H](C)[C@@H](CN(C)C(=O)C2CCCCC2)Oc2cc(-c3cncnc3)ccc2S1(=O)=O,inactive: 0.987
19,NCC[C@H]1CC[C@@H](NC(=O)C2CC2)[C@H](CO)O1,inactive: 0.989
20,CCS(=O)(=O)Nc1ccc2c(c1)C(=O)N(C)[C@H]1CC[C@H](CC(=O)N[C@H]3CCN(Cc4ccccc4)C3)O[C@@H]1CO2,inactive: 1.01
21,C[C@@H]1CN([C@@H](C)CO)C(=O)Cc2cc(NC(=O)c3ccncc3)ccc2O[C@@H]1CN(C)S(=O)(=O)c1ccc(F)cc1,inactive: 1.01

row,SMILES,relative growth
1,O=C(O)C[C@@H]1C=C[C@H](NC(=O)c2ccncc2)[C@@H](CO)O1,inactive: 1.02
2,O=C(CN1CCOCC1)N[C@H]1CC[C@H](CCNS(=O)(=O)c2ccccc2F)O[C@H]1CO,inactive: 0.999
3,COc1ccccc1C#Cc1ccc2c(c1)O[C@H](CN(C)Cc1cccnc1)[C@@H](C)CN([C@@H](C)CO)S2(=O)=O,inactive: 1.03
4,C/N=C1\S[C@@H](CC(=O)NC(C)C)C(=O)N1C,inactive: 0.997
5,Cn1c(=O)cnn(CCCCN2CCN(c3ncccn3)CC2)c1=O,inactive: 0.987
6,C[C@@H]1CN([C@H](C)CO)C(=O)c2cc(NS(=O)(=O)c3ccc(Cl)cc3)ccc2O[C@@H]1CN(C)Cc1ccc(Cl)c(Cl)c1,inactive: 0.98
7,CCC(=O)Nc1cnc(OC)nc1OC,inactive: 1.01
8,C[C@@H]1CCCCO[C@@H](CN(C)C(=O)Nc2cccc3ccccc23)[C@H](C)CN([C@@H](C)CO)C(=O)c2cc(N(C)C)ccc2O1,inactive: 1.01
9,C[C@@H]1CN([C@H](C)CO)S(=O)(=O)c2ccc(-c3ccccc3F)cc2O[C@@H]1CN(C)Cc1cncnc1,inactive: 1.01
10,C[C@@H]1CCCCO[C@@H](CN(C)Cc2ccc(C(=O)O)cc2)[C@H](C)CN([C@H](C)CO)C(=O)c2cc(NC(=O)Nc3ccc4c(c3)OCO4)ccc2O1,inactive: 0.99
11,CCS(=O)(=O)N[C@@H]1CC[C@@H](CC(=O)NCc2ccccn2)O[C@@H]1CO,inactive: 0.975
12,c1ccc(-c2ccc(C(c3ccccc3)n3ccnc3)cc2)cc1 (stereo not drawn),inactive: 0.953
13,Oc1c(Cl)cc(Cl)c2cccnc12,active: 0.111
14,COCC#Cc1ccc2c(c1)O[C@@H](CN(C)Cc1ccccc1F)[C@@H](C)CN([C@H](C)CO)S2(=O)=O,inactive: 1.03
15,C[C@@H]1CN([C@@H](C)CO)C(=O)CCCn2cc(nn2)CO[C@H]1CN(C)C(=O)Nc1ccccc1C(F)(F)F,inactive: 1.02
16,C[C@H](CO)N1C[C@H](C)[C@@H](CN(C)Cc2ccc(F)cc2)Oc2cc(C#CC3CC3)ccc2S1(=O)=O,inactive: 0.938
17,C[C@@H]1CN([C@H](C)CO)C(=O)c2cc(NC(=O)CCCN(C)C)ccc2O[C@H]1CN(C)S(=O)(=O)c1cn(C)cn1,inactive: 1.01
18,COc1ccc2c3c([nH]c2c1)[C@H](CO)N(C[C@]13CCN(CC1)C(=O)c1ccccc1F)C(=O)Nc1ccccc1F,inactive: 1.01
19,COCC(=O)Nc1ccc2c(c1)OC[C@@H](C)N(Cc1ccccc1OC)C[C@H](C)[C@@H](OC)CN(C)C2=O,inactive: 0.985
20,COc1ccccc1C(=O)Nc1ccc2c(c1)C(=O)N(C)[C@@H]1CC[C@@H](CC(=O)NCCc3ccncc3)O[C@H]1CO2,inactive: 1.01
21,C[C@@H]1CN([C@@H](C)CO)C(=O)Cc2cc(NC(=O)C3CC3)ccc2O[C@H]1CN(C)Cc1ccc(C(=O)O)cc1,inactive: 1

row,SMILES,relative growth
1,C[C@H](CO)N1C[C@H](C)[C@@H](CN(C)S(C)(=O)=O)Oc2c(NC(=O)NC3CCCCC3)cccc2C1=O,inactive: 0.993
2,C[C@@H]1CCCCO[C@@H](CN(C)S(=O)(=O)c2ccc(Cl)cc2)[C@H](C)CN([C@@H](C)CO)C(=O)c2cc(NC(=O)Nc3cccc4ccccc34)ccc2O1,inactive: 1.05
3,CC(=O)O[C@H]1C[C@@H](OC(C)=O)C(C)(C)[C@@H]2C[C@@H](OC(C)=O)[C@@]3(C)C4=CC(=O)O[C@@H](c5ccoc5)[C@]4(C)CC[C@@H]3[C@@]12C,inactive: 1.02
4,Cc1cc(C(=O)Nc2cccc3c2O[C@H](CN(C)C(=O)NC2CCCCC2)[C@@H](C)CN([C@@H](C)CO)C3=O)n(C)n1,inactive: 1.01
5,CNC[C@@H](O)CS(=O)(=O)c1ccccc1,inactive: 1.01
6,O=C1N[C@@H]2[C@@H]1[C@H]1C=C[C@H]2C1,inactive: 0.974
7,COCC(=O)N(C)C[C@@H]1Oc2cc(C#Cc3ccccc3)ccc2S(=O)(=O)N([C@@H](C)CO)C[C@H]1C,inactive: 0.903
8,COc1ccc(S(=O)(=O)N(C)C[C@H]2Oc3ccc(NS(=O)(=O)c4cn(C)cn4)cc3CC(=O)N([C@H](C)CO)C[C@@H]2C)cc1,inactive: 0.996
9,C[C@@H]1CN([C@H](C)CO)C(=O)Cc2cc(NC(=O)Nc3ccc(C(F)(F)F)cc3)ccc2O[C@H]1CN(C)C(=O)Nc1ccccc1,inactive: 1.06
10,C[C@H](CO)N1C[C@H](C)[C@@H](CN(C)Cc2ccc(Cl)c(Cl)c2)Oc2ccc(NS(=O)(=O)c3ccccc3)cc2C1=O,inactive: 1.01
11,Cc1cc(C(=O)Nc2cccc3c2O[C@H](CN(C)S(=O)(=O)c2cccs2)[C@H](C)CN([C@@H](C)CO)C3=O)n(C)n1,inactive: 1.01
12,Cc1noc(C)c1NC(=O)Nc1cccc2c1O[C@H](CN(C)C(=O)Nc1cccc3ccccc13)[C@H](C)CN([C@@H](C)CO)C2=O,inactive: 0.948
13,C[C@H]1CN([C@@H](C)CO)C(=O)c2cc(-c3cccc(C#N)c3)cnc2O[C@@H]1CN(C)C(=O)c1cnccn1,inactive: 1.02
14,Cc1cc([N+](=O)[O-])nn1CC(=O)N1CCOCC1,inactive: 1.01
15,C[C@H](CO)N1C[C@H](C)[C@@H](CN(C)C(=O)C2CC2)Oc2ncc(-c3ccc(C(=O)N(C)C)cc3)cc2C1=O,inactive: 0.995
16,C[C@@H]1CN([C@H](C)CO)C(=O)c2cc(NC(=O)Nc3ccc4c(c3)OCO4)ccc2O[C@@H]1CN(C)Cc1ccc(Cl)c(Cl)c1,inactive: 0.996
17,C[C@@H]1CCCCO[C@H](CN(C)C(=O)Nc2ccc(C(F)(F)F)cc2)[C@@H](C)CN([C@@H](C)CO)C(=O)c2cc(NS(=O)(=O)c3ccccc3)ccc2O1,inactive: 0.982
18,C[C@H]1CN([C@@H](C)CO)C(=O)c2cccc(NC(=O)Nc3ccccc3)c2O[C@H]1CN(C)Cc1ccc(Oc2ccccc2)cc1,inactive: 1.04
19,C[C@]12C=CC(=O)N[C@@H]1CC[C@@H]1[C@@H]2CC[C@]2(C)[C@@H](C(=O)Nc3cc(C(F)(F)F)ccc3C(F)(F)F)CC[C@@H]12,inactive: 0.931
20,CCOCc1c[nH]c(=O)[nH]c1=O,inactive: 1.04
21,COc1cccc(NC(=O)N(C)C[C@H]2Oc3ncc(C#Cc4cccnc4)cc3C(=O)N([C@H](C)CO)C[C@@H]2C)c1,inactive: 0.984
